The structures appear in SMILES notation. Screen size: about 45,000 compounds; about 200 (0.44%) were called active. Roughly 7% stayed inconclusive and do not appear here. Calls come from the whole dose curve; as a rule, active = well fitted activation curve with a large enough effect; inconclusive = small, poorly fitted or top-dose-only effect; inactive = no such curve, though single readings can be large or run the other way. Some of the results follow.

A short description of this experiment: qHTS of TDP-43 Inhibitors: NCGC Sytravon Library Screen. Note: 0% is about no effect; nearly all actives have a fitted effect of over 55% in size. Conditions: yeast TDP-43 toxicity rescue, BacTiter-Glo growth, 24 h; series mostly up to 46.1 µM; growth rescue (activation): at the top concentration. In short, it runs like this:
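TDP-43-expressing yeast, pregrown in raffinose, seeded at OD600 0.02 in galactose medium with compound for 24 hr at 30 deg C. Growth read by BacTiter-Glo luminescence, so rescue of toxicity appears as activation.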
For `CCc1nnc(NC(=O)c2nc(S(=O)(=O)Cc3cccc(C)c3)ncc2Cl)s1`, the “growth rescue (activation)” value was inactive: 26.7%.

Turning to `CCCS(=O)(=O)NC(=O)C1(C)CCN(C(=O)Cc2cccc(OC)c2)C1` (stereo not given), the “growth rescue (activation)” value is inactive: 10.4%.

As for `CC1(C(=O)NS(=O)(=O)C2CC2)CCN(C(=O)CSc2ccccc2)C1` (stereo not given), the “growth rescue (activation)” value was inactive: 5.94%.

Consider `Cc1onc(-c2c(Cl)cccc2Cl)c1C(=O)N1CCN(c2ccc(F)cc2)CC1`, for which the “growth rescue (activation)” value is inactive: 26.2%.

Consider `CCC(Oc1ccccc1)C(=O)Nc1ccc(O)c(-c2nc3cc(C)ccc3o2)c1` (stereo not given), for which the “growth rescue (activation)” value was inactive: 2.32%.

As to `COc1cc(OC)cc(C(=O)N2CCN(C3CCCCC3)CC2)c1`, the “growth rescue (activation)” value is inactive: 6%.

Turning to `CC(C)c1ccc(N(CC(=O)NCc2cccnc2)S(=O)(=O)c2ccccc2)cc1`, the “growth rescue (activation)” value was inactive: 28.5%.

In the case of `CCOC(=O)c1nnsc1N`, the “growth rescue (activation)” value is inactive: 9.12%.

Regarding `Cc1ccc(NC(=O)Nc2ccc(Cl)cc2)c(Br)c1`, the “growth rescue (activation)” value is inactive: 11.7%.

Regarding `COc1ccc(CCNC(=O)C(=O)NCCOc2ccccc2)cc1OC`, the “growth rescue (activation)” value was inactive: 19.6%.

`COc1cccc(/C=N/NC(=O)c2cccs2)c1`: the “growth rescue (activation)” value was inactive: -6.33%.

For `CCn1cnc2sc(C(=O)Oc3cccc(C)c3)c(C)c2c1=O`, the “growth rescue (activation)” value was inactive: 1.64%.

`CC(=O)c1cc(CN2CCN(C(C)C)C(CCO)C2)cs1` (stereo not given): the “growth rescue (activation)” value was inactive: -12.9%.

For `Cc1ccc(Cl)cc1-c1cc(C(=O)N2CCN(c3ccncc3)CC2)[nH]n1`, the “growth rescue (activation)” value is inactive: 8.21%.

Take `COc1ccc(-n2c(C)cc(C(=O)CSc3ccc(NC(C)=O)cc3)c2C)cc1`: the “growth rescue (activation)” value was inactive: 0.107%.

In the case of `COCc1ccc(C(=O)NCC2(N3CCCCC3)CCCCC2)cc1`, the “growth rescue (activation)” value was inactive: -5%.

Take `CCOc1ccccc1OCCCC(=O)Nc1sccc1C(N)=O`: the “growth rescue (activation)” value is inactive: 21.1%.

For `Cc1ccc(CSCc2nc3ccccc3[nH]2)cc1`, the “growth rescue (activation)” value was inactive: -5.29%.

`COc1ccc(Cl)cc1NC(=S)Nc1cccnc1`: the “growth rescue (activation)” value was inactive: 15.9%.

As to `CC(CNS(=O)(=O)c1ccc(Cl)cc1)n1cncn1` (stereo not given), the “growth rescue (activation)” value was inactive: -1.99%.

As for `COCCCNC(=S)Nc1ccc(CC(=O)O)cc1`, the “growth rescue (activation)” value is inactive: -17%.

As to `O=C(Cn1c(=O)ccn(Cc2ccccc2)c1=O)Nc1cccc(S(=O)(=O)N2CCOCC2)c1`, the “growth rescue (activation)” value was inactive: 24.2%.

As to `O=C(COC(=O)/C=C/c1ccc(Br)o1)Nc1cccc(S(=O)(=O)N2CCOCC2)c1`, the “growth rescue (activation)” value was inactive: -5.11%.

In the case of `O=C(CC12CC3CC(CC(C3)C1)C2)NC(=S)Nc1ccc(CN2CCOCC2)cc1`, the “growth rescue (activation)” value was inactive: 17.1%.

With `O=c1[nH]c(CN2CCN(Cc3ccccc3)CC2)nc2scc(-c3ccccc3)c12`, the “growth rescue (activation)” value is inactive: -9.59%.

Turning to `CCc1nn(C(C)C(=O)NCCN2CCN(c3cccc(C)c3C)CC2)c(=O)c2cc3occc3n12` (stereo not given), the “growth rescue (activation)” value is inactive: -2.05%.

Take `CCOC(=O)CC1=CSC2=NS(=O)(=O)CCN12`: the “growth rescue (activation)” value was inactive: -11.7%.

Consider `CC1(C(=O)NS(=O)(=O)C2CC2)CCN(C(=O)c2cccc(Cl)c2)C1` (stereo not given), for which the “growth rescue (activation)” value was inactive: 4.94%.

In the case of `CCCCNC(=O)Cn1c(=O)c2c(ncn2CCC(C)C)n(Cc2ccccc2)c1=O`, the “growth rescue (activation)” value is inactive: 13.8%.

For `CCOC(=O)N/N=C/c1ccc(N2CCOCC2)s1`, the “growth rescue (activation)” value is inactive: -3.1%.

As to `O=C(O)c1ccc(/C=N/NC(=O)c2cc(-c3cccs3)nc3ccccc23)cc1`, the “growth rescue (activation)” value is inactive: 6.01%.

Take `O=C(c1cc(F)ccc1F)C1CCCN(C(=O)c2cccs2)C1` (stereo not given): the “growth rescue (activation)” value was inactive: 30.5%.

As for `O=C(Nc1cccc(S(=O)(=O)N2CCOCC2)c1)C1COc2ccccc2O1` (stereo not given), the “growth rescue (activation)” value is inactive: -0.966%.

As for `COc1cc(/C=N/N(C)C)cc(Br)c1O`, the “growth rescue (activation)” value was inactive: -14.3%.

Take `O=C1C2C3C=CC(C4CC34)C2C(=O)N1/N=C/c1ccc([N+](=O)[O-])o1` (stereo not given): the “growth rescue (activation)” value was inactive: 22.1%.

As to `CC(C)Cn1c(N)c(C(=O)COC(=O)c2ccccc2F)c(=O)n(C)c1=O`, the “growth rescue (activation)” value is inactive: 6.2%.

With `Cc1cccc(C(C)C)c1NC(=O)c1ccc(CN(c2ccccc2)S(=O)(=O)c2ccccc2)cc1`, the “growth rescue (activation)” value is inactive: 1.79%.

In the case of `CN(C)C(=O)CNc1ccn2nc(-c3cccc(OCCN4CCOCC4)c3)cc2n1`, the “growth rescue (activation)” value was inactive: 6.91%.

With `Cc1cc(SCC(=O)NN)c2cc(Br)ccc2n1`, the “growth rescue (activation)” value was inactive: -11.4%.

Regarding `CCN1C(=O)/C(=C/c2ccc(OCc3ccc(C(=O)O)cc3)c(Cl)c2)NC1=S`, the “growth rescue (activation)” value is inactive: 9.11%.

For `CCc1nc2c(OCCOc3ccccc3)cccn2c1N(C=O)Cc1ccc(OC)cc1`, the “growth rescue (activation)” value is inactive: 7.4%.

With `COc1cccc(N2CCN(c3ccc(S(=O)(=O)N4CCN(C)CC4)cc3[N+](=O)[O-])CC2)c1`, the “growth rescue (activation)” value was inactive: -4.72%.

On to `S=C(NCCc1c[nH]c2ccccc12)NC1CC1`, for which the “growth rescue (activation)” value was inactive: 1.92%.

With `Nc1nc2n(n1)C(=O)CC(c1ccccc1)N2` (stereo not given), the “growth rescue (activation)” value was inactive: 2.18%.

`CCOC(=O)N1CCN(C(=O)C2CCN(C(=O)c3ccccc3C)CC2)CC1`: the “growth rescue (activation)” value was inactive: -93.1%.

As for `CC(=O)Nc1cccc(NC(=O)CSc2nnc3ccccn23)c1`, the “growth rescue (activation)” value is inactive: 14.4%.

Regarding `Cc1ccc2cc(NC(=O)C3(C)CCN(C)C3)ccc2n1` (stereo not given), the “growth rescue (activation)” value was inactive: 22.4%.

Consider `Cc1cccc(Nc2nccc(N(C)C)c2C#N)c1`, for which the “growth rescue (activation)” value was inactive: 4.03%.

For the molecule `CN(C(=O)c1cccc(S(=O)(=O)NCc2ccccc2)c1)C1CCCCC1`, the “growth rescue (activation)” value is inactive: 17.6%.

Turning to `O=C(CSc1nnc(-c2ccccc2)n1Cc1ccco1)NCc1ccc2c(c1)OCO2`, the “growth rescue (activation)” value was inactive: -22.8%.

With `CC(C)NS(=O)(=O)c1ccc(NC(=O)C(C)OC(=O)CCCOc2ccccc2)cc1` (stereo not given), the “growth rescue (activation)” value is inactive: 9.8%.

Turning to `O=C(c1cc(-c2ccc(Cl)cc2)on1)N1CCCC1`, the “growth rescue (activation)” value was inactive: 9.64%.

Turning to `CCN(CC)c1ccc(/C=N/Nc2nc(C)cc(C)n2)cc1`, the “growth rescue (activation)” value was inactive: 8.99%.

In the case of `Cc1cc(Cl)ccc1OCC(=O)Nc1cccnc1`, the “growth rescue (activation)” value was inactive: 0.769%.

With `COc1ccc(OC)c(S(=O)(=O)N2CCC(C(=O)N3CCOCC3)CC2)c1`, the “growth rescue (activation)” value was inactive: 0.469%.

(Values after PubChem BioAssay AID1347073 (National Center for Advancing Translational Sciences (NCATS), 2019).)
